The supplement of paper PMC12009370
The list shows a part of the results. Most values come without repeats; read them as rough.

Columns and labels:
IMR-32 [1] = test: drug sensitivity score (DSS), single drug with vehicle (DSS (score)); higher = more cytotoxic; extreme values may be limits of the assay; conditions: 72 h; co-treatment: vehicle (DMSO)
SK-N-AS [2] = test: as above; conditions: 72 h; co-treatment: vehicle (DMSO)
SK-N-AS [3] = test: drug sensitivity score (DSS) in combination with SL-176 (DSS (score)); higher = more cytotoxic; extreme values may be limits of the assay; conditions: 72 h; co-treatment: SL-176 11.2 uM (IC25 in IMR-32)
IMR-32 [4] = test: as above; conditions: 72 h; co-treatment: SL-176 11.2 uM (IC25 in IMR-32)
SK-N-AS [5] = test: drug sensitivity score (DSS) in combination with GSK2830371 (DSS (score)); neuroblastoma lines; SL-176 and GSK2830371 are WIP1 inhibitors; higher = more cytotoxic; extreme values may be limits of the assay; conditions: 72 h; co-treatment: GSK2830371 at IC25 in IMR-32
IMR-32 [6] = test: as above; conditions: 72 h; co-treatment: GSK2830371 at IC25 in IMR-32
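Wherever drug sensitivity score (DSS) in combination with GSK2830371 is given: neuroblastoma cells in 384-well plates, each compound at five concentrations, luminescence read-out, DSS derived from fitted concentration-response curve combining IC50 with minimum and maximum inhibition.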
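Wherever drug sensitivity score (DSS) in combination with SL-176 is given: cells in 384-well plates, luminescence read-out, each screening drug at five concentrations, DSS derived from the fitted concentration-response curve combining IC50 with minimum and maximum inhibition.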
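Wherever drug sensitivity score (DSS), single drug with vehicle is given: 384-well screen with five concentrations per compound and a luminescence read-out, DSS computed from the fitted dose-response curve combining IC50 with minimum and maximum inhibition.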

For `N#CC1(c2ccc(NC(=O)c3cccnc3NCc3ccncc3)cc2)CCCC1` [Apatinib], the drug sensitivity score (IMR-32 [1]) was 0, the drug sensitivity score (SK-N-AS [2]) was 0 and the drug sensitivity score (SK-N-AS [3]) was 0. For the same molecule, the drug sensitivity score (IMR-32 [4]) was 0, the drug sensitivity score (SK-N-AS [5]) was 0 and the drug sensitivity score (IMR-32 [6]) was 0.

Molecule `CNC(=O)c1ccc2cc([C@@]3(O)CCn4cncc43)ccc2c1` [Orteronel] has a drug sensitivity score (IMR-32 [1]) of 0, a drug sensitivity score (SK-N-AS [2]) of 0 and a drug sensitivity score (SK-N-AS [3]) of 0. It also gave a drug sensitivity score (IMR-32 [4]) of 0, a drug sensitivity score (SK-N-AS [5]) of 0 and a drug sensitivity score (IMR-32 [6]) of 0.

In the case of `CC(=O)OC[C@H]1O[C@@H]([S-])[C@H](OC(C)=O)[C@@H](OC(C)=O)[C@@H]1OC(C)=O.CCP(CC)CC.[Au+]` [Auranofin], the drug sensitivity score (IMR-32 [1]) is reported as 4.9, the drug sensitivity score (SK-N-AS [2]) is reported as 6.3 and the drug sensitivity score (SK-N-AS [3]) is reported as 7. For the same molecule, the drug sensitivity score (IMR-32 [4]) was 5.1, the drug sensitivity score (SK-N-AS [5]) was 5.5 and the drug sensitivity score (IMR-32 [6]) was 8.4.

`O=c1[nH]c(=O)n([C@H]2C[C@H](O)[C@@H](CO)O2)cc1C(F)(F)F` [Trifluridine] was tested, and the drug sensitivity score (IMR-32 [1]) was 9.5, the drug sensitivity score (SK-N-AS [2]) was 0.3 and the drug sensitivity score (SK-N-AS [3]) was 0.2. It also gave a drug sensitivity score (IMR-32 [4]) of 8.8, a drug sensitivity score (SK-N-AS [5]) of 0 and a drug sensitivity score (IMR-32 [6]) of 17.3.

Work on `Cc1cc([C@@H](C)Nc2ccccc2C(=O)O)c2nc(N3CCOCC3)cc(=O)n2c1` yielded a drug sensitivity score (IMR-32 [1]) of 0, a drug sensitivity score (SK-N-AS [2]) of 0 and a drug sensitivity score (SK-N-AS [3]) of 0. The drug sensitivity score (IMR-32 [4]) was 0, the drug sensitivity score (SK-N-AS [5]) was 0.2 and the drug sensitivity score (IMR-32 [6]) was 0.

Work on `Nc1nc2[nH]cc(CCc3ccc(C(=O)N[C@@H](CCC(=O)O)C(=O)O)cc3)c2c(=O)[nH]1` [Pemetrexed] yielded a drug sensitivity score (IMR-32 [1]) of 19, a drug sensitivity score (SK-N-AS [2]) of 2.1 and a drug sensitivity score (SK-N-AS [3]) of 3.2. It also gave a drug sensitivity score (IMR-32 [4]) of 14.2, a drug sensitivity score (SK-N-AS [5]) of 3.9 and a drug sensitivity score (IMR-32 [6]) of 27.4.

Molecule `Cn1cc(-c2cnn3c(N)c(Br)c([C@@H]4CCCNC4)nc23)cn1` has a drug sensitivity score (IMR-32 [1]) of 3.1, a drug sensitivity score (SK-N-AS [2]) of 3.3 and a drug sensitivity score (SK-N-AS [3]) of 3.7. The drug sensitivity score (IMR-32 [4]) was 3.8, the drug sensitivity score (SK-N-AS [5]) was 4.5 and the drug sensitivity score (IMR-32 [6]) was 4.3.

Molecule `COc1cccc(OCCCN)c1-c1cc(Nc2cnc(C#N)cn2)n[nH]1` [Prexasertib] has a drug sensitivity score (IMR-32 [1]) of 31.2, a drug sensitivity score (SK-N-AS [2]) of 27.8 and a drug sensitivity score (SK-N-AS [3]) of 28.4. The drug sensitivity score (IMR-32 [4]) was 31, the drug sensitivity score (SK-N-AS [5]) was 27.5 and the drug sensitivity score (IMR-32 [6]) was 29.9.

`Nc1ncn([C@@H]2O[C@H](CO)[C@@H](O)[C@H]2O)c(=O)n1` [Azacitidine] showed a drug sensitivity score (IMR-32 [1]) of 17.7, a drug sensitivity score (SK-N-AS [2]) of 5.7 and a drug sensitivity score (SK-N-AS [3]) of 5.1. For the same molecule, the drug sensitivity score (IMR-32 [4]) was 5.2, the drug sensitivity score (SK-N-AS [5]) was 5.1 and the drug sensitivity score (IMR-32 [6]) was 10.6.

Molecule `CC1(C)OCCn2c1nc1c(N3CCOCC3)nc(-c3cnc(N)nc3)nc12` has a drug sensitivity score (IMR-32 [1]) of 12.2, a drug sensitivity score (SK-N-AS [2]) of 14 and a drug sensitivity score (SK-N-AS [3]) of 17.8. It also gave a drug sensitivity score (IMR-32 [4]) of 11.9, a drug sensitivity score (SK-N-AS [5]) of 14.7 and a drug sensitivity score (IMR-32 [6]) of 16.6.

`C[C@@]1(C(=O)Nc2ccc(F)nc2)CCCN1c1nc(Nc2cc(C3CC3)n[nH]2)c2cccn2n1` gave a drug sensitivity score (IMR-32 [1]) of 21.8, a drug sensitivity score (SK-N-AS [2]) of 12.5 and a drug sensitivity score (SK-N-AS [3]) of 13.4. For the same molecule, the drug sensitivity score (IMR-32 [4]) was 21.4, the drug sensitivity score (SK-N-AS [5]) was 14.2 and the drug sensitivity score (IMR-32 [6]) was 21.8.

`C[C@@H](Oc1cc(-n2cnc3ccc(CN4CCN(C)CC4)cc32)sc1C(N)=O)c1ccccc1C(F)(F)F` showed a drug sensitivity score (IMR-32 [1]) of 36.6, a drug sensitivity score (SK-N-AS [2]) of 33.6 and a drug sensitivity score (SK-N-AS [3]) of 34.5. For the same molecule, the drug sensitivity score (IMR-32 [4]) was 39.8, the drug sensitivity score (SK-N-AS [5]) was 34.6 and the drug sensitivity score (IMR-32 [6]) was 36.3.

For `C1=N/C2=N/c3ccc(OCCN4CCCC4)c(c3)COC/C=C/COCc3cccc(c3)C(=C1)N2` [Pacritinib], the drug sensitivity score (IMR-32 [1]) was 8.6, the drug sensitivity score (SK-N-AS [2]) was 10 and the drug sensitivity score (SK-N-AS [3]) was 9.9. It also gave a drug sensitivity score (IMR-32 [4]) of 8.5, a drug sensitivity score (SK-N-AS [5]) of 9.5 and a drug sensitivity score (IMR-32 [6]) of 9.6.

`C[C@H]1C[C@@H](n2c(Nc3ccc(OC(F)(F)F)cc3)nc3cc(CCC(=O)O)ccc32)CC(C)(C)C1` showed a drug sensitivity score (IMR-32 [1]) of 0, a drug sensitivity score (SK-N-AS [2]) of 0 and a drug sensitivity score (SK-N-AS [3]) of 0. It also gave a drug sensitivity score (IMR-32 [4]) of 14.6, a drug sensitivity score (SK-N-AS [5]) of 0 and a drug sensitivity score (IMR-32 [6]) of 0.4.

For `COc1cc2ncnc(Nc3ccc(F)c(Cl)c3)c2cc1NC(=O)/C=C/CN1CCCCC1` [Dacomitinib], the drug sensitivity score (IMR-32 [1]) was 0, the drug sensitivity score (SK-N-AS [2]) was 1.4 and the drug sensitivity score (SK-N-AS [3]) was 0.9. The drug sensitivity score (IMR-32 [4]) was 0.3, the drug sensitivity score (SK-N-AS [5]) was 0.9 and the drug sensitivity score (IMR-32 [6]) was 0.

Work on `Cc1ccc(=O)n(-c2ccccc2)c1` [Pirfenidone] yielded a drug sensitivity score (IMR-32 [1]) of 1.1, a drug sensitivity score (SK-N-AS [2]) of 0 and a drug sensitivity score (SK-N-AS [3]) of 0. The drug sensitivity score (IMR-32 [4]) was 0.3, the drug sensitivity score (SK-N-AS [5]) was 0 and the drug sensitivity score (IMR-32 [6]) was 0.

`CC1=C2C[C@H]3[C@@H](CC[C@@H]4C[C@H](NS(C)(=O)=O)CC[C@@]43C)[C@@H]2CC[C@@]2(C1)O[C@@H]1C[C@H](C)CN[C@H]1[C@H]2C` [Saridegib] showed a drug sensitivity score (IMR-32 [1]) of 0, a drug sensitivity score (SK-N-AS [2]) of 0 and a drug sensitivity score (SK-N-AS [3]) of 0.1. For the same molecule, the drug sensitivity score (IMR-32 [4]) was 3, the drug sensitivity score (SK-N-AS [5]) was 0 and the drug sensitivity score (IMR-32 [6]) was 0.9.

Work on `N#Cc1ccnc(N2C(=O)CC[C@H]2C(=O)N(c2cncc(F)c2)[C@H](C(=O)NC2CC(F)(F)C2)c2ccccc2Cl)c1` [Ivosidenib] yielded a drug sensitivity score (IMR-32 [1]) of 0.6, a drug sensitivity score (SK-N-AS [2]) of 0 and a drug sensitivity score (SK-N-AS [3]) of 0.1. For the same molecule, the drug sensitivity score (IMR-32 [4]) was 0, the drug sensitivity score (SK-N-AS [5]) was 0 and the drug sensitivity score (IMR-32 [6]) was 0.

Molecule `CNC(=O)c1ccccc1Nc1nc(Nc2ccc3c(c2OC)CCC[C@H](N2CCN(CCO)CC2)C3)ncc1Cl` has a drug sensitivity score (IMR-32 [1]) of 6.2, a drug sensitivity score (SK-N-AS [2]) of 9.7 and a drug sensitivity score (SK-N-AS [3]) of 9.4. The drug sensitivity score (IMR-32 [4]) was 7.7, the drug sensitivity score (SK-N-AS [5]) was 9.2 and the drug sensitivity score (IMR-32 [6]) was 4.9.

Molecule `CN(C)C(=O)c1ccc(S(=O)(=O)c2ccc(NC(=O)[C@@](C)(O)C(F)(F)F)c(Cl)c2)cc1` has a drug sensitivity score (IMR-32 [1]) of 0, a drug sensitivity score (SK-N-AS [2]) of 0 and a drug sensitivity score (SK-N-AS [3]) of 0. The drug sensitivity score (IMR-32 [4]) was 0, the drug sensitivity score (SK-N-AS [5]) was 0 and the drug sensitivity score (IMR-32 [6]) was 0.2.

In the case of `C[C@]12CC[C@@H]3c4ccc(O)cc4C[C@@H](CCCCCCCCC[S+]([O-])CCCC(F)(F)C(F)(F)F)[C@H]3[C@@H]1CC[C@@H]2O` (stereo partly drawn) [Fulvestrant], the drug sensitivity score (IMR-32 [1]) is reported as 0, the drug sensitivity score (SK-N-AS [2]) is reported as 0 and the drug sensitivity score (SK-N-AS [3]) is reported as 0. The drug sensitivity score (IMR-32 [4]) was 0, the drug sensitivity score (SK-N-AS [5]) was 0 and the drug sensitivity score (IMR-32 [6]) was 0.3.

For `CC(=O)Nc1cccc(-n2c(=O)n(C3CC3)c(=O)c3c(Nc4ccc(I)cc4F)n(C)c(=O)c(C)c32)c1` [Trametinib], the drug sensitivity score (IMR-32 [1]) was 0, the drug sensitivity score (SK-N-AS [2]) was 22.6 and the drug sensitivity score (SK-N-AS [3]) was 22.4. The drug sensitivity score (IMR-32 [4]) was 0, the drug sensitivity score (SK-N-AS [5]) was 22.9 and the drug sensitivity score (IMR-32 [6]) was 0.2.

With `Cc1cc2c(C(=O)NC[C@H](C)c3ccccc3)c(O)c(O)cc2c(O)c1-c1c(C)cc2c(C(=O)NC[C@H](C)c3ccccc3)c(O)c(O)cc2c1O` [Sabutoclax] the drug sensitivity score (IMR-32 [1]) was 28.8, the drug sensitivity score (SK-N-AS [2]) was 21.3 and the drug sensitivity score (SK-N-AS [3]) was 22.1. It also gave a drug sensitivity score (IMR-32 [4]) of 31.7, a drug sensitivity score (SK-N-AS [5]) of 26 and a drug sensitivity score (IMR-32 [6]) of 31.8.
